Among all 48,000 compounds or so, about 450 (0.94%) were called active. Not shown: some 19% with an inconclusive outcome. The call rests on the fitted dose curve; in most records, active means well fitted inhibition curve with a large enough effect; inconclusive means small, poorly fitted or top-dose-only effect; inactive means no such curve, though single readings can be large or run the other way. The list shows a part of the results.
Test: Primary qHTS for Identification of Small Molecule Inhibitors of Huntingtin Promoter Activity; further: nearly all actives have a fitted effect of over 50% in size
Conditions: HEK293 HTT promoter firefly luciferase reporter (activity 0% = vehicle and -100% = no light), 24 h; series mostly up to 57.5 µM; activity change, negative = inhibition: at the top concentration
In short: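 HEK293 luciferase promoter-reporter cells (2,500/well) plated 24 h, then compounds added at up to 57.5 uM final for 24 h at 37 °C. Firefly luminescence by Dual-Glo, normalized to vehicle (0%) and zero RLU (-100%).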

Compound | activity change, negative = inhibition
O=C(CCCCCn1c(=O)[nH]c2ccsc2c1=O)NCc1ccccc1 | inactive: -8.79%
CCOc1ccc(CNC(=O)Cn2nc(N3CCN(c4ccccc4)CC3)ccc2=O)cc1 | inactive: -14.7%
Oc1c(C(c2cccc(Br)c2)N2CCCC2)sc2nc(-c3ccco3)nn12 (stereo not drawn) | inactive: 5.06%
Cc1cccc(N2C(=O)C(CC(=O)Nc3ccccc3)N(C3CCCCC3)C2=O)c1 (stereo not drawn) | inactive: -27.3%
COc1cccc(C(=O)Nc2nc3nc(C)c(Cc4ccccc4)c(=O)n3[nH]2)c1 | inactive: -0.533%
Cn1c(=O)c2[nH]c(Br)nc2n(C)c1=O | inactive: 5.79%
CCOC(=O)c1c(C)[nH]c(C)c1S(=O)(=O)N(C)CC(=O)N1CCN(c2cccc(C)c2C)CC1 | inactive: -39.8%
COc1ccccc1C(=O)Nc1ccccc1C(=O)OCc1cc(=O)n2c(C)csc2n1 | inactive: -16.8%
CCOC(=O)c1c(C)oc2nc(C)nc(NCCCN3CCN(c4ccccc4OC)CC3)c12 | inactive: -1.18%
Cc1nn(C)c2c1c(-c1ccccc1)cc(=O)n2Cc1ccc(Br)cc1F | inactive: 8.83%
Cc1ccc(OCC(=O)N(Cc2ccc(N(C)C)cc2)CC2CCCO2)cc1C (stereo not drawn) | inactive: -7.91%
COc1ccc(-c2cc(C(F)(F)F)nc(SCC(=O)N3CCCCC3)n2)cc1 | inactive: -7.55%
CCCC(=O)c1cc2c(cc1NC(=O)c1ccccc1F)OCCO2 | inactive: -13.1%
CCCCOc1ccc(NC(=O)c2cc3c(n(-c4ccc(Cl)cc4)c2=O)CCCC3=O)cc1 | inactive: 1.64%
Cc1ccc(CNC(=O)CCCn2c(=O)c3ccccc3n(Cc3ccccc3Cl)c2=O)cc1 | inactive: -6.46%
COc1cccc(CNC(=O)C2CCCN(S(=O)(=O)c3ccc4c(ccn4C)c3)C2)c1OC (stereo not drawn) | inactive: -20.1%
O=C(Cn1c(=O)n(CCCS(=O)(=O)C2CCCCC2)c(=O)c2ccccc21)Nc1ccccc1F | inactive: -5.52%
Cc1nn2c3c(cnc2c1-c1ccc(F)cc1)C(=O)CC(c1ccccc1)C3 (stereo not drawn) | inactive: -6.06%
CC(=O)Nc1ccc(NC(=O)CC(C)n2ccc(C)n2)cc1 (stereo not drawn) | inactive: -3.3%
CCCN1CCN(CCNC(=O)Nc2cc(Cl)c(OC)cc2OC)CC1 | inactive: -14.9%
Cc1cc(C)c(-c2csc(-c3cc4ccccc4oc3=O)n2)cc1C | inactive: -9.43% [at 11.5 µM]
O=C(Nc1nnc(N2CCCC2)s1)Nc1cc(F)ccc1F | inactive: 10.3%
O=C(NCCc1ccccc1)c1c2c(nc3ccccc13)C(=O)N(C1CCCCC1)C2 | inactive: 18%
Cc1oc(-c2cccc(Cl)c2)nc1CN1CCC(C(=O)NCc2ccc(F)cc2)CC1 | inactive: 4.92%

Compound | activity change, negative = inhibition
C=CCOc1cc(Cl)ccc1C(=O)NCCN(CC)CC | inactive: -5.76%
O=C(COCCOCCOCC(=O)Nc1c(I)cc(I)c(C(=O)O)c1I)Nc1c(I)cc(I)c(C(=O)O)c1I | inactive: -1.62%
COc1cccc(NC(=O)Cc2ccc(NC(=O)N3CCCCc4ccccc43)cc2)c1 | inactive: -19.2%
CCCN1C(=O)c2[nH]nc(-c3ccc(F)cc3)c2C1c1ccc(O)c(OCC)c1 (stereo not drawn) | inactive: -2.07%
CCOC(=O)c1c(-c2ccccc2)oc2ccc(OCc3ccc(C)cc3)cc12 | inactive: -9.36%
Cc1ccc(N2C(=O)CSC23C(=O)Nc2ccccc23)cc1F (stereo not drawn) | inactive: -21.1%
Cc1cccc(-c2nc3c4ccccc4n(CC(=O)Nc4cc(F)ccc4F)c(=O)n3n2)c1 | inactive: 0%
COc1ccc(C(=O)Cn2c(=O)n3nc(CCn4nc(C)cc4C)nc3c3cc(OC)c(OC)cc32)cc1 | inactive: -7.56%
COc1ccc(S(=O)(=O)Nc2c(C)n(C)n(-c3ccccc3)c2=O)cc1Br | inactive: -13.4% [at 11.5 µM]
COc1ccccc1N1CCN(C(=O)CSc2nc(C)cc(=O)[nH]2)CC1 | inactive: -14%
CC(C)Nc1cc(N2CCN(C3CCCCC3)CC2)c2noc3c2c1C(=O)c1ccccc1-3 | inactive: -9.16%
CCOc1ccc(CNC(=O)C(C)n2ncn3cccc3c2=O)cc1 (stereo not drawn) | inactive: -11.4%
CCOC(=O)c1[nH]c(C)c(CCC(=O)Nc2ccc(C)cc2Cl)c1C | inactive: -8.3%
CCOc1ccccc1CNC(=O)C1=C(C)C(=O)OC12CCN(C(C)=O)CC2 | inactive: -0.88%
COc1cc(NC(=O)CN2CCCN(Cc3cccc(F)c3)S2(=O)=O)cc(OC)c1 | inactive: -1.82%
CCOC(=O)c1c(C)oc2nc(C)nc(NCCc3ccc(C)cc3)c12 | inactive: -4.91%
CC1=C(C(=O)N2CCCCC2)C(c2ccc(Cl)cc2)n2c(nc3ccccc32)N1 (stereo not drawn) | inactive: -4.81%
Cc1cccc(C(=O)Nc2ccc(N3CC=C(c4ccccc4C)CC3)c(C(=O)O)c2)c1 | inactive: 0.865%
Cc1ccc(CN2C(=O)c3ccccc3Sc3ccc(C(=O)N4CCOCC4)cc32)cc1 | inactive: -27.8%
Cc1ccc(NC(=O)c2oc3ccc(S(=O)(=O)N(C)C4CCCCC4)cc3c2C)c(C)c1 | inactive: -12.4%
COc1ccc(-c2nc(C)c(CCNC(=O)c3ccc(C(F)(F)F)cc3)s2)cc1OC | inactive: -0.789%
CCCNC(=O)c1cc2n(n1)CCCN(Cc1ccc(C)cc1)C2=O | inactive: -21%
O=C(COc1ccccc1F)Nc1ccc2nc(SCC(=O)N3CCOCC3)sc2c1 | inactive: -27.5%
O=S(=O)(c1ccccc1)c1nc(-c2ccc(F)cc2)oc1NCc1ccccc1 | inactive: -15.7%
